# Measurements: the supplement of paper PMC10037445
# “And” between values parts separate entries of the source, which are not always exact repeats. Identical values can stand only once. ± gives the standard deviation of the averaged measurements. Whole data set: some 2,900 compounds, median “IRF Lucia reporter activity, fold change vs agonist alone” near 0.9, cut for the highest 2% near 2.8. This is one part of the list.
# How the values were obtained:
# RAW-Dual [1] = test: IRF Lucia reporter activity, fold change vs agonist alone; higher = enhanced IRF activity; details: library stock concentration (final ~1000-fold dilution): 10 mM, agonist: MPLA (TLR4) […]
# Summary of the method: (§1)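 Library stock was pin-tooled at 50 nL into 384-well plates of RAW-Dual macrophages (50,000 cells/well, DMEM), followed 1 h later by a PRR agonist, and the cells were kept at 37 °C, 5% CO2. Supernatant collected after 20 hours was read for IRF by QuantiLuc luminescence and for NF-κB by QuantiBlue absorbance at 620 nm. Reporter activity is fold change over agonist-alone wells, and a well counted as cytotoxic when its IncuCyte confluency was below 70% of agonist controls in both mask sets.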
# RAW-Dual [2] = test: IRF Lucia reporter activity, fold change vs agonist alone; cytotoxicity flag (confluency mask): not cytotoxic; higher = enhanced IRF activity
# Summary of the method: as §1
# RAW-Dual [3] = test: IRF Lucia reporter activity, fold change vs agonist alone; cytotoxicity flag (confluency mask): cytotoxic (confluency <70% of control); higher = enhanced IRF activity
# Summary of the method: as §1
# [4] = cytotoxicity flag (confluency mask): cytotoxic (confluency <70% of control)
# [5] = agonist: 3'3'-cGAMP (STING) 10 ug/mL
# [6] = cytotoxicity flag (confluency mask): not cytotoxic
structure (smiles),measurement,setting,value
COc1c(C)cnc(Cn2cnc3c(Cl)nc(N)nc32)c1C,IRF Lucia reporter activity,RAW-Dual [1]; [4],1.43
CC(=O)NC(Cc1ccc(O)cc1)C(=O)NC(CCCNC(=N)N)C(=O)NC(Cc1ccccc1)C(N)=O (stereo not drawn) (library stock concentration (final ~1000-fold dilution): 10 mM),IRF Lucia reporter activity,RAW-Dual [2]; [5],0.931
same,IRF Lucia reporter activity,RAW-Dual [2]; agonist: LPS (TLR4) 0.1 ug/mL,0.994
Cc1ccc(C2OC(CO)C(O)C(O)C2O)cc1Cc1ccc(-c2ccc(F)cc2)s1.Cc1ccc(C2OC(CO)C(O)C(O)C2O)cc1Cc1ccc(-c2ccc(F)cc2)s1.O (stereo not drawn) (library stock concentration (final ~1000-fold dilution): 10 mM),IRF Lucia reporter activity,RAW-Dual [3]; [5],0.0212
same,IRF Lucia reporter activity,RAW-Dual [3]; agonist: LPS (TLR4) 0.1 ug/mL,0.026
Cc1ccc(C2OC(CO)C(O)C(O)C2O)cc1Cc1ccc(-c2ccc(F)cc2)s1.Cc1ccc(C2OC(CO)C(O)C(O)C2O)cc1Cc1ccc(-c2ccc(F)cc2)s1.O (stereo not drawn),IRF Lucia reporter activity,RAW-Dual [1]; [4],0.0328
COc1ccc(Cl)c(Nc2nc3ccccc3nc2NS(=O)(=O)c2cccc(NC(=O)C(C)(C)N)c2)c1 (library stock concentration (final ~1000-fold dilution): 10 mM),IRF Lucia reporter activity,RAW-Dual [3]; [5],0.158
same,IRF Lucia reporter activity,RAW-Dual [3]; agonist: LPS (TLR4) 0.1 ug/mL,0.791
O=C(Cc1ccccc1)Nc1nnc(CCSCCc2nnc(NC(=O)Cc3ccccc3)s2)s1 (library stock concentration (final ~1000-fold dilution): 10 mM),IRF Lucia reporter activity,RAW-Dual [2]; [5],0.986
same,IRF Lucia reporter activity,RAW-Dual [2]; agonist: LPS (TLR4) 0.1 ug/mL,1.4
COc1cc(-c2ncn(/C=C\C(=O)OC(C)C)n2)cc(C(F)(F)F)c1,IRF Lucia reporter activity,RAW-Dual [1]; [4],0.0902
COc1cc(-c2ncn(/C=C\C(=O)OC(C)C)n2)cc(C(F)(F)F)c1 (library stock concentration (final ~1000-fold dilution): 10 mM),IRF Lucia reporter activity,RAW-Dual [3]; [5],0.0197
same,IRF Lucia reporter activity,RAW-Dual [3]; agonist: LPS (TLR4) 0.1 ug/mL,0.121
COc1ccc(-c2nc(N3CCOCC3)c3sc(CN(C)c4ncc(C(=O)NO)cn4)cc3n2)cn1,IRF Lucia reporter activity,RAW-Dual [1]; [4],0.434
COc1ccc(-c2nc(N3CCOCC3)c3sc(CN(C)c4ncc(C(=O)NO)cn4)cc3n2)cn1 (library stock concentration (final ~1000-fold dilution): 10 mM),IRF Lucia reporter activity,RAW-Dual [3]; [5],0.0418
same,IRF Lucia reporter activity,RAW-Dual [3]; agonist: LPS (TLR4) 0.1 ug/mL,0.611
Cc1cnc(Nc2ccc(OCCN3CCCC3)cc2)nc1Nc1cccc(S(=O)(=O)NC(C)(C)C)c1 (library stock concentration (final ~1000-fold dilution): 10 mM),IRF Lucia reporter activity,RAW-Dual [3]; [5],0.0581
same,IRF Lucia reporter activity,RAW-Dual [3]; agonist: LPS (TLR4) 0.1 ug/mL,0.013
Cc1cnc(Nc2ccc(OCCN3CCCC3)cc2)nc1Nc1cccc(S(=O)(=O)NC(C)(C)C)c1,IRF Lucia reporter activity,RAW-Dual [1]; [4],0.0291
CC(CN1c2ccccc2Sc2ccccc21)N(C)C.Cl (stereo not drawn),IRF Lucia reporter activity,RAW-Dual [1]; [6],1.23
CC(CN1c2ccccc2Sc2ccccc21)N(C)C.Cl (stereo not drawn) (library stock concentration (final ~1000-fold dilution): 10 mM),IRF Lucia reporter activity,RAW-Dual [2]; [5],0.442
same,IRF Lucia reporter activity,RAW-Dual [2]; agonist: LPS (TLR4) 0.1 ug/mL,1.43
CN(C)S(=O)(=O)c1ccc2c(c1)/C(=C/c1cc3c([nH]1)CCCC3)C(=O)N2 (library stock concentration (final ~1000-fold dilution): 10 mM),IRF Lucia reporter activity,RAW-Dual [2]; [5],0.0973
same,IRF Lucia reporter activity,RAW-Dual [2]; agonist: LPS (TLR4) 0.1 ug/mL,0.272
O=C(O)CC(=O)C(=O)O (library stock concentration (final ~1000-fold dilution): 10 mM),IRF Lucia reporter activity,RAW-Dual [2]; [5],0.987
same,IRF Lucia reporter activity,RAW-Dual [2]; agonist: LPS (TLR4) 0.1 ug/mL,0.694
O=C(O)CC(=O)C(=O)O,IRF Lucia reporter activity,RAW-Dual [1]; [6],1.06
Nc1ccccc1NC(=O)c1cnccn1 (library stock concentration (final ~1000-fold dilution): 10 mM),IRF Lucia reporter activity,RAW-Dual [2]; [5],0.602
same,IRF Lucia reporter activity,RAW-Dual [2]; agonist: LPS (TLR4) 0.1 ug/mL,0.436
C=C1CCN(C(C)C(O)(Cn2cncn2)c2ccc(F)cc2F)CC1 (stereo not drawn) (library stock concentration (final ~1000-fold dilution): 10 mM),IRF Lucia reporter activity,RAW-Dual [3]; [5],1.25
same,IRF Lucia reporter activity,RAW-Dual [3]; agonist: LPS (TLR4) 0.1 ug/mL,2.38
C=C1CCN(C(C)C(O)(Cn2cncn2)c2ccc(F)cc2F)CC1 (stereo not drawn),IRF Lucia reporter activity,RAW-Dual [1]; [4],2.14
Cc1ccc2nc(NCCN)c3ncc(C)n3c2c1 (library stock concentration (final ~1000-fold dilution): 10 mM),IRF Lucia reporter activity,RAW-Dual [2]; [5],2.21
same,IRF Lucia reporter activity,RAW-Dual [2]; agonist: LPS (TLR4) 0.1 ug/mL,3.5
same,IRF Lucia reporter activity,RAW-Dual [3]; agonist: LPS (TLR4) 0.1 ug/mL,0.0229 and 0.0291
C=C1CCC2C(C)(COC(=O)CCC(=O)O)C(OC(=O)CCC(=O)O)CCC2(C)C1/C=C/C1=CCOC1=O (stereo not drawn) (library stock concentration (final ~1000-fold dilution): 10 mM),IRF Lucia reporter activity,RAW-Dual [2]; [5],0.871
same,IRF Lucia reporter activity,RAW-Dual [2]; agonist: LPS (TLR4) 0.1 ug/mL,1.01
CC(=O)c1cc([N+](=O)[O-])c(Sc2ccc(F)cc2F)s1 (library stock concentration (final ~1000-fold dilution): 10 mM),IRF Lucia reporter activity,RAW-Dual [3]; [5],0.0205
same,IRF Lucia reporter activity,RAW-Dual [3]; agonist: LPS (TLR4) 0.1 ug/mL,0.0256
CC(=O)c1cc([N+](=O)[O-])c(Sc2ccc(F)cc2F)s1,IRF Lucia reporter activity,RAW-Dual [1]; [4],0.031
C=CCc1ccc(O)c(-c2cc(CC=C)ccc2O)c1,IRF Lucia reporter activity,RAW-Dual [1]; [6],0.958 ± 0.1
C=CCc1ccc(O)c(-c2cc(CC=C)ccc2O)c1 (library stock concentration (final ~1000-fold dilution): 10 mM),IRF Lucia reporter activity,RAW-Dual [2]; [5],0.968 ± 0.044
same,IRF Lucia reporter activity,RAW-Dual [2]; agonist: LPS (TLR4) 0.1 ug/mL,0.851 ± 0.029
